68 compounds from the supplement of paper PMC2702839 can be followed below.

Structures are written as SMILES. Counter-ions that a name gives are not always drawn. The list shows a part of the results.

This assay has as its system Schistosoma mansoni schistosomula. The assay can be described thus: phenotypic hit in primary schistosomula screen (any phenotype vs DMSO control) (binary (1 = hit, 0 = no phenotype)); higher = active (phenotype induced). The note with it: 1 µM; time (d): 7.
With `O=[N+]([O-])c1ccc(O)c([N+](=O)[O-])c1` [2,4-dinitrophenol], the phenotypic hit is inactive: 0. In the case of `NCCCNCCSP(=O)(O)O` [amifostine], the phenotypic hit was inactive: 0. The value for `c1ccc2c(c1)[nH]c1cnccc12` [norharman] was inactive: 0; that for `CCC(C)c1cnc(CC(C)C)c(=O)n1O` (stereo not drawn) [aspergillic acid] was inactive: 0.

On to `COc1cc2occc2c2oc(=O)ccc12` [isobergaptene], for which the phenotypic hit is inactive: 0.

In the case of `NCC[C@H](O)C(=O)N[C@@H]1C[C@H](N)[C@@H](O[C@H]2O[C@H](CN)[C@@H](O)[C@H](O)[C@H]2N)[C@H](O[C@@H]2O[C@H](CO)C(O)[C@H]2O)[C@H]1O` (stereo partly drawn) [butirosin sulfate], the phenotypic hit is inactive: 0. With `CCCCCCCCC(=O)NCc1ccc(O)c(OC)c1` [N-Vanillylnonanamide], the phenotypic hit was inactive: 0. For the compound `CC(C)c1ccc2c(c1O)CC[C@H]1C3=C(CC[C@]21C)C(=O)OC3` [triptophenolide], the phenotypic hit was inactive: 0. As for `C=C1[C@@H](C)[C@H]2[C@H](Cc3ccccc3)NC(=O)[C@]23OC(=O)/C=C/C(=O)CCC[C@@H](C)C/C=C/[C@H]3[C@@H]1O` [cytochalasin a], the phenotypic hit was inactive: 0. For the compound `COc1ccc(/C=C/c2cc(O)cc(O)c2)cc1` [resveratrol 4'-methyl ether], the phenotypic hit is inactive: 0.

Consider `CC(=O)[O][Hg][c]1ccccc1` [phenylmercuric acetate], for which the phenotypic hit is active: 1.

As to `O=c1[nH]c2ccccc2n1C1CCN(CCCC(c2ccc(F)cc2)c2ccc(F)cc2)CC1` [Pimozide], the phenotypic hit was inactive: 0.

For the compound `C/C=C(\C)C(=O)O[C@H]1C[C@@H](OC(C)=O)[C@@]2(C(=O)OC)CO[C@H]3[C@@H](O)[C@@](C)([C@]45O[C@@]4(C)[C@H]4C[C@@H]5O[C@@H]5OC=C[C@@]54O)[C@H]4[C@]1(CO[C@]4(O)C(=O)OC)[C@@H]32` [azadirachtin], the phenotypic hit is inactive: 0. Consider `Cc1cc2c(C(C)C)c(O)c(O)c(C=O)c2c(O)c1-c1c(C)cc2c(C(C)C)c(O)c(O)c(C=O)c2c1O` [gossypol], for which the phenotypic hit was inactive: 0. With `CC(=O)Nc1cc([As](=O)(O)O)ccc1O` [acetarsol], the phenotypic hit was inactive: 0.

Regarding `COc1cccc2c1cc([N+](=O)[O-])c1c(C(=O)O)cc3c(c12)OCO3` [aristolochic acid], the phenotypic hit was inactive: 0. Consider `c1cc2c(cc1[C@H]1OC[C@H]3[C@@H]1CO[C@H]3c1ccc3c(c1)OCO3)OCO2` [asarinin (-)], for which the phenotypic hit was inactive: 0. Take `C=C1[C@@H]([C@@]2(C)[C@@H](OC(C)=O)CC(=O)O[C@](C)(COC(C)=O)[C@@H]2C(=O)OC)[C@@H](OC=O)[C@H](OC(=O)[C@H](O)[C@H](C)CC)[C@@]2(C)[C@H](c3ccoc3)CC(=O)[C@]12O` [prieurianin]: the phenotypic hit is inactive: 0. Take `COc1c(CC=C(C)C)c2c(c3oc(=O)c(-c4ccc(O)cc4)c(O)c13)C=CC(C)(C)O2` [scandenin]: the phenotypic hit was inactive: 0. The value for `COc1cc2c(cc1OC)[C@@H]1C(=O)c3ccc(OC)c(CC=C(C)C)c3O[C@@H]1CO2` [rotenonic acid, methyl ether] was inactive: 0; that for `CN(C)C(=O)Oc1ccc[n+](C)c1` [Pyridostigmine bromide] was inactive: 0; that for `CNC(=O)Oc1cccc2c1OC(C)(C)C2` [carbofuran] was inactive: 0. For `COC(C)(C)CCC[C@H](C)C/C=C/C(C)=C/C(=O)OC(C)C` [methoprene (s)], the phenotypic hit is inactive: 0. For the compound `C[C@@]12C(=O)OC(=O)[C@]1(C)[C@H]1CC[C@@H]2O1` [cantharidin], the phenotypic hit was inactive: 0.

Turning to `CCCC(C)(COC(N)=O)COC(=O)NC(C)C` (stereo not drawn) [Carisoprodol], the phenotypic hit is inactive: 0. The value for `Oc1ccc(Cl)cc1Cc1cc(Cl)ccc1O` [dichlorophene] was active: 1; that for `Cl[C@H]1[C@H](Cl)[C@@H](Cl)[C@@H](Cl)[C@H](Cl)[C@H]1Cl` [lindane] was inactive: 0; that for `CC12CCC3C(CCC4(O)CC(O)CCC34/C=N/NC(N)=O)C1(O)CCC2C1=CC(=O)OC1` (stereo not drawn) [strophanthidin semicarbazide] was inactive: 0.

For `CC(=O)O[C@@H]1C[C@H]2C(C)(C)C(=O)C=C[C@]2(C)[C@H]2CC[C@]3(C)C(=CC(=O)O[C@H]3c3ccoc3)[C@@]21C` [deoxygedunin], the phenotypic hit was inactive: 0. The value for `N[C@@H]1C[C@H]1c1ccccc1.N[C@H]1C[C@@H]1c1ccccc1` [tranylcypromine sulfate] was inactive: 0; that for `C[N+]1(C)CCCC(OC(=O)C(O)(c2ccccc2)c2ccccc2)C1` (stereo not drawn) [mepenzolate bromide] was inactive: 0; that for `COc1cc(OC)c(OC)cc1C=O` [asarylaldehyde] was inactive: 0.

Turning to `CCOC(=O)NC1=C(N2CC2)C(=O)C(NC(=O)OCC)=C(N2CC2)C1=O` [diaziquone], the phenotypic hit is inactive: 0. `COc1cc2c(cc1O)C[C@H]1c3c(cc(O)c(OC)c3-2)CCN1C` [boldine]: the phenotypic hit was inactive: 0. Turning to `C[C@H]1CC[C@]2(NC1)O[C@H]1C[C@H]3[C@@H]4CC[C@H]5C[C@@H](O[C@@H]6O[C@H](CO)[C@H](O[C@@H]7O[C@H](CO)[C@@H](O)[C@H](O[C@@H]8OC[C@@H](O)[C@H](O)[C@H]8O)[C@H]7O[C@@H]7O[C@H](CO)[C@@H](O)[C@H](O)[C@H]7O)[C@H](O)[C@H]6O)CC[C@]5(C)[C@H]4CC[C@]3(C)[C@H]1[C@@H]2C` [tomatine], the phenotypic hit is active: 1.

For `CC1(C)C(=O)C=C[C@@]2(C)C1=C(O)C(=O)[C@]1(C)[C@@H]2CC[C@@]2(C)[C@H](c3ccoc3)C[C@H]3O[C@]321` [cedrelone], the phenotypic hit was inactive: 0. For `O=C1CCO1` [beta-propiolactone] the value was inactive: 0; for `Cc1c(O)c(O)cc2c1CC=C1[C@@]2(C)CC[C@@]2(C)[C@@H]3C[C@](C)(C(=O)O)CC[C@]3(C)CC[C@]12C` [dihydrocelastrol], inactive: 0. Turning to `O=C1C(Cl)=C(Cl)C(=O)C(Cl)=C1Cl` [chloranil], the phenotypic hit is inactive: 0.

Regarding `C[C@@H]1CC[C@]2(NC1)O[C@H]1C[C@H]3[C@@H]4CC=C5C[C@@H](O)CC[C@]5(C)[C@H]4CC[C@]3(C)[C@H]1[C@@H]2C` [solasodine], the phenotypic hit was inactive: 0. For the compound `COc1ccc(OC)c(C(O)C(C)N)c1` (stereo not drawn) [Methoxamine hydrochloride], the phenotypic hit is inactive: 0. For `CCC(=O)O[C@H]1CC[C@H]2[C@@H]3CCC4=CC(=O)CC[C@]4(C)[C@H]3CC[C@]12C` [testosterone propionate] the value was inactive: 0; for `CNC(=O)N(C)c1nnc(C(C)(C)C)s1` [tebuthiuron], inactive: 0. For `CC[S+]([O-])CCSP(=O)(OC)OC` (stereo not drawn) [oxdemetonmethyl] the value was inactive: 0. Take `CCOP(=S)(OCC)Oc1nc(Cl)c(Cl)cc1Cl` [chlorpyrifos]: the phenotypic hit is inactive: 0. For `CCCCCCCCCCCCCCCC[n+]1ccccc1` [cetylpyridinium chloride], the phenotypic hit was active: 1. As for `C=CCC1(C(C)CCC)C(=O)NC(=S)NC1=O` (stereo not drawn) [thiamylal sodium], the phenotypic hit is inactive: 0.

For `c1ccc2c3c([nH]c2c1)CNCC3` [noreleagnine], the phenotypic hit was inactive: 0.

`c1ccc(/N=N/c2ccccc2)cc1` [azobenzene]: the phenotypic hit was inactive: 0.

In the case of `CC(=O)O[C@@H]1CC[C@@]2(C)[C@@H](CC[C@@H]3[C@@H]2CC[C@]2(C)C(=O)CC[C@@H]32)C1` [androsterone acetate], the phenotypic hit is inactive: 0. As for `CC(N)C(O)c1ccc(O)c(O)c1` (stereo not drawn) [nordefrin  hydrochloride], the phenotypic hit is inactive: 0. `CC(=O)NC1CCSC1=O` (stereo not drawn) [citiolone]: the phenotypic hit is inactive: 0. Turning to `CNC(=O)Oc1ccccc1OC(C)C` [propoxur], the phenotypic hit was inactive: 0. On to `COc1cc([C@@H]2c3cc4c(cc3[C@H](OC(C)=O)[C@H]3COC(=O)[C@@H]23)OCO4)cc(OC)c1OC` [picropodophyllin acetate], for which the phenotypic hit was inactive: 0. Take `c1ccc2c(c1)sc1ccccc12` [dibenzothiophene]: the phenotypic hit was inactive: 0. For the compound `O=P1(N(CCCl)CCCl)NCCCO1` (stereo not drawn) [cyclophosphamide hydrate], the phenotypic hit was inactive: 0. In the case of `C=C1C2CC[C@@]3(C)[C@H](c4ccoc4)OC(=O)C[C@]13O[C@H]1CC(=O)C(C)(C)[C@H](C(OC(C)=O)C(=O)OC)[C@@]21C` (stereo partly drawn) [6-acetoxyangolensic acid methyl ester], the phenotypic hit is inactive: 0.

`CC(C)[C@]12O[C@H]1[C@@H]1O[C@@]13[C@@]1(C)CCC4=C(COC4=O)[C@@H]1C[C@@H]1O[C@@]13C2=O` [triptonide]: the phenotypic hit was active: 1. With `CCOP(=S)(OCC)Oc1ccc2c(C)c(Cl)c(=O)oc2c1` [coumophos], the phenotypic hit is inactive: 0. `COc1ccc(C(c2ccc(OC)cc2)C(Cl)(Cl)Cl)cc1` [methoxychlor]: the phenotypic hit was inactive: 0. The value for `COC(=O)NC(=S)Nc1ccccc1NC(=S)NC(=O)OC` [dimethyl 4,4-o-phenylene-bis (3-thiophanate)] was inactive: 0; that for `COc1ccccc1N1CCNCC1` [1-(2-Methoxyphenyl)piperazine hydrochloride] was inactive: 0. In the case of `FC(F)(F)c1cccc(N2CCNCC2)c1` [TFMPP hydrochloride], the phenotypic hit is inactive: 0. For `CC1CC(Cl)CCC1C(=O)OC(C)(C)C` (stereo not drawn) [trimedlure] the value was inactive: 0; for `Cc1nccc2c1[nH]c1cc(O)ccc12` [harmol hydrochloride], inactive: 0; for `CC(C)c1cc2c(c(O)c1O)[C@@]1(C(=O)O)CCCC(C)(C)[C@@H]1CC2` [carnosic acid], inactive: 0. Turning to `CCCCCCC(C)OC(=O)COc1ccc(Cl)cc1Cl` (stereo not drawn) [2,4-dichlorophenoxyacetic acid, isooctyl ester], the phenotypic hit was inactive: 0. In the case of `Cc1[nH]c2ccccc2c1CN(C)C` [2-methyl gramine], the phenotypic hit was inactive: 0.
